# Assay results: the supplement of paper PMC8728848
# The list shows a part of the results.
# B1: Tamarinin (protein)
# chain: CDDSARAGNIVVYWGQGGSDNSEGSLKEACKSGHYNMIVLQQLIVYDDGRDPDLNLGAHCSDCTKLEEQIKYCQNKDIKILLQIGQVVPTQEDVKDVTKNLSEYLLKNFFSGKSGPLGEVYLNGIDIASVPEGNNLKFDELVEALNDSSTERRIYLSASPLCVYPDYYLNKAIQTEKLDFLFVQFFYQNPCIYTEGNPENLFEAMKTWTKNVPESMIFMALPATPNLDGYIPPRVLNKEILPAVSEASNFAGVMIFDRYFDRFRKYSSKIK
# Legend:
# Test in all cases: glycan array binding signal (z-score within array); higher = stronger binding
# Conditions in all cases: glycan notation: IUPAC condensed, linker removed
# Neu5Ac(a2-8)Neu5Ac = molecular target: Neu5Ac(a2-8)Neu5Ac
# How it was run: (§1)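 The binding signal is a Z-score computed within each array and averaged over linkers. Arrays of the same protein sequence at different concentrations or buffers were also averaged together. Data originate from 3228 arrays in the Consortium for Functional Glycomics database, kept only where the protein sequence was available.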
# [1] = molecular target: Neu5Ac(a2-8)Neu5Ac(a2-3)Gal(b1-3)GalNAc(b1-4)[Neu5Ac(a2-3)]Gal(b1-4)Glc
# How it was run: as §1
# [2] = molecular target: Neu5Ac(a2-8)Neu5Ac(a2-3)Gal(b1-3)GalNAc(b1-4)[Neu5Ac(a2-8)Neu5Ac(a2-3)]Gal(b1-4)Glc
# How it was run: as §1
# [3] = molecular target: Neu5Ac(a2-8)Neu5Ac(a2-3)Gal(b1-4)Glc
# How it was run: as §1
# [4] = molecular target: Neu5Ac(a2-8)Neu5Ac(a2-3)Gal(b1-4)GlcNAc
# How it was run: as §1
# [5] = molecular target: Neu5Ac(a2-8)Neu5Ac(a2-3)[Gal(b1-3)GalNAc(b1-4)]Gal(b1-4)Glc
# How it was run: as §1
# [6] = molecular target: Neu5Ac(a2-8)Neu5Ac(a2-3)[GalNAc(b1-4)]Gal(b1-4)Glc
# How it was run: as §1
# [7] = molecular target: Neu5Ac(a2-8)Neu5Ac(a2-8)Neu5Ac
# How it was run: as §1
# [8] = molecular target: Neu5Ac(a2-8)Neu5Ac(a2-8)Neu5Ac(a2-3)Gal(b1-4)Glc
# How it was run: as §1
# [9] = molecular target: Neu5Ac(a2-8)Neu5Ac(a2-8)Neu5Ac(a2-3)[Gal(b1-3)GalNAc(b1-4)]Gal(b1-4)Glc
# How it was run: as §1
# [10] = molecular target: Neu5Ac(a2-8)Neu5Ac(a2-8)Neu5Ac(a2-3)[GalNAc(b1-4)]Gal(b1-4)Glc
# How it was run: as §1
# [11] = molecular target: Neu5Ac(a2-8)Neu5Ac(a2-8)Neu5Ac(a2-8)Neu5Ac(a2-3)[GalNAc(b1-4)]Gal(b1-4)Glc
# How it was run: as §1
# [12] = molecular target: Neu5Ac(a2-8)Neu5Gc(a2-3)Gal(b1-4)GlcNAc
# How it was run: as §1
# [13] = molecular target: Neu5Ac(b2-6)Gal(b1-4)GlcNAc
# How it was run: as §1
# Neu5Ac(b2-6)GalNAc = molecular target: Neu5Ac(b2-6)GalNAc
# How it was run: as §1
# [14] = molecular target: Neu5Ac9Ac(a2-3)Gal(b1-3)GlcNAc
# How it was run: as §1
# [15] = molecular target: Neu5Ac9Ac(a2-3)Gal(b1-4)GlcNAc
# How it was run: as §1
# [16] = molecular target: Neu5Ac9Ac(a2-6)Gal(b1-4)GlcNAc
# How it was run: as §1
# [17] = molecular target: Neu5Gc(a2-3)Gal(b1-3)GlcNAc
# How it was run: as §1
# [18] = molecular target: Neu5Gc(a2-3)Gal(b1-3)[Fuc(a1-4)]GlcNAc
# How it was run: as §1
# Neu5Gc(a2-3)Gal(b1-4)Glc = molecular target: Neu5Gc(a2-3)Gal(b1-4)Glc
# How it was run: as §1
# [19] = molecular target: Neu5Gc(a2-3)Gal(b1-4)GlcNAc
# How it was run: as §1
# [20] = molecular target: Neu5Gc(a2-3)Gal(b1-4)GlcNAc(b1-3)Gal(b1-4)GlcNAc(b1-2)Man(a1-3)[Neu5Gc(a2-3)Gal(b1-4)GlcNAc(b1-3)Gal(b1-4)GlcNAc(b1-2)Man(a1-6)]Man(b1-4)GlcNAc(b1-4)GlcNAc
# How it was run: as §1
# [21] = molecular target: Neu5Gc(a2-3)Gal(b1-4)[Fuc(a1-3)]GlcNAc
# How it was run: as §1
# [22] = molecular target: Neu5Gc(a2-6)Gal(b1-4)GlcNAc
# How it was run: as §1
# Neu5Gc(a2-6)GalNAc = molecular target: Neu5Gc(a2-6)GalNAc
# How it was run: as §1
# [23] = molecular target: Neu5Gc(a2-8)Neu5Ac(a2-3)Gal(b1-4)GlcNAc
# How it was run: as §1
# [24] = molecular target: Neu5Gc(a2-8)Neu5Gc(a2-3)Gal(b1-4)GlcNAc
# How it was run: as §1
# [25] = molecular target: Neu5Gc(a2-8)Neu5Gc(a2-3)Gal(b1-4)GlcNAc(b1-3)Gal(b1-4)GlcNAc
# How it was run: as §1
# [26] = molecular target: Neu5Gc(a2-8)Neu5Gc(a2-6)Gal(b1-4)GlcNAc
# How it was run: as §1
# [27] = molecular target: Neu5Gc(b2-6)Gal(b1-4)GlcNAc
# How it was run: as §1
binder,measurement,setting,value
B1,glycan array binding signal (z-score),Neu5Ac(a2-8)Neu5Ac,-0.281
same,glycan array binding signal (z-score),[1],0.219
same,glycan array binding signal (z-score),[2],-0.156
same,glycan array binding signal (z-score),[3],-0.395
same,glycan array binding signal (z-score),[4],-0.453
same,glycan array binding signal (z-score),[5],-0.04
same,glycan array binding signal (z-score),[6],-0.42
same,glycan array binding signal (z-score),[7],-0.406
same,glycan array binding signal (z-score),[8],-0.446
same,glycan array binding signal (z-score),[9],-0.059
same,glycan array binding signal (z-score),[10],-0.405
same,glycan array binding signal (z-score),[11],-0.394
same,glycan array binding signal (z-score),[12],-0.457
same,glycan array binding signal (z-score),[13],-0.463
same,glycan array binding signal (z-score),Neu5Ac(b2-6)GalNAc,-0.417
same,glycan array binding signal (z-score),[14],-0.189
same,glycan array binding signal (z-score),[15],-0.335
same,glycan array binding signal (z-score),[16],-0.342
same,glycan array binding signal (z-score),[17],0.082
same,glycan array binding signal (z-score),[18],-0.116
same,glycan array binding signal (z-score),Neu5Gc(a2-3)Gal(b1-4)Glc,0.043
same,glycan array binding signal (z-score),[19],-0.078
same,glycan array binding signal (z-score),[20],-0.36
same,glycan array binding signal (z-score),[21],-0.286
same,glycan array binding signal (z-score),[22],-0.203
same,glycan array binding signal (z-score),Neu5Gc(a2-6)GalNAc,-0.025
same,glycan array binding signal (z-score),[23],-0.475
same,glycan array binding signal (z-score),[24],-0.479
same,glycan array binding signal (z-score),[25],-0.41
same,glycan array binding signal (z-score),[26],-0.477
same,glycan array binding signal (z-score),[27],-0.329
